According to US9975946B2, “Antibodies obtainable using supramolecular constructs” (AC Immune SA, priority 2004, dated 2018):
Where no end group is shown, it is not given here.

Tested on: C57BL/6 mice
Assay: ELISA of sera from mice immunized with liposomal antigens (immunogenicity)
Details: time course

PEG-Aβ4-11: Aβ4-11 (SEQ ID NO: 2) with N- and C-terminal PEG-lipid, reconstituted in liposomes with monophosphoryl lipid A (FRHDSGYE; not fully specified (N-terminus, C-terminus); also: reconstituted in liposomes with monophosphoryl lipid A; UniProt P05067 675-682, looked up, fragment)
antibody response (ELISA): slower in comparison to PEG-Aβ1-16
